According to the supplement of paper PMC8728848:
The other results are listed elsewhere or left out.

How the values were obtained:
Assay in all cases: glycan array binding signal (z-score within array); higher = stronger binding
Conditions in all cases: glycan notation: IUPAC condensed, linker removed
[1] = target: Fuc(a1-2)[GalNAc(a1-3)]Gal(b1-4)GlcNAc(b1-2)Man(a1-3)[Fuc(a1-2)[GalNAc(a1-3)]Gal(b1-4)GlcNAc(b1-2)Man(a1-6)]Man(b1-4)GlcNAc(b1-4)[Fuc(a1-6)]GlcNAc
Procedure, shortened: (§1)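 Glycan array data came from 3228 arrays in the Consortium for Functional Glycomics database, and only arrays with an available protein sequence were kept. Glycan names were put into IUPAC-condensed notation, and columns mapping to the same glycan were averaged. The binding signal is a within-array Z-score, averaged across arrays of one protein sequence run at different concentrations or buffers and across linkers. A negative Z-score can be read as non-binding.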

[2] = target: Fuc(a1-2)[GalNAc(a1-3)]Gal(b1-4)GlcNAc(b1-3)Gal(b1-4)GlcNAc
Procedure, shortened: as §1

[3] = target: Fuc(a1-2)[GalNAc(a1-3)]Gal(b1-4)GlcNAc(b1-3)Gal(b1-4)GlcNAc(b1-3)Gal(b1-4)GlcNAc
Procedure, shortened: as §1

[4] = target: Fuc(a1-2)[GalNAc(a1-3)]Gal(b1-4)GlcNAc(b1-3)GalNAc
Procedure, shortened: as §1

[5] = target: Fuc(a1-2)[GalNAc(a1-3)]Gal(b1-4)GlcNAc(b1-3)[Fuc(a1-2)[GalNAc(a1-3)]Gal(b1-4)GlcNAc(b1-6)]GalNAc
Procedure, shortened: as §1

[6] = target: Fuc(a1-2)[GalNAc(a1-3)]Gal(b1-4)GlcNAc(b1-6)GalNAc
Procedure, shortened: as §1

[7] = target: Fuc(a1-2)[GalNAc(a1-3)]Gal(b1-4)[Fuc(a1-3)]GlcNAc
Procedure, shortened: as §1

[8] = target: Fuc(a1-2)[GalNAc(a1-3)]Gal(b1-4)[Fuc(a1-3)]GlcNAc(b1-3)GalNAc
Procedure, shortened: as §1

[9] = target: Fuc(a1-2)[GalNAc(a1-4)]Gal(b1-4)GlcNAc
Procedure, shortened: as §1

[10] = target: Fuc(a1-2)[GalNAc(b1-3)]Gal
Procedure, shortened: as §1

Fuc(a1-3)GlcNAc = target: Fuc(a1-3)GlcNAc
Procedure, shortened: as §1

[11] = target: Fuc(a1-3)[Gal(b1-4)]Glc6S
Procedure, shortened: as §1

[12] = target: Fuc(a1-3)[Gal(b1-4)]GlcNAc
Procedure, shortened: as §1

[13] = target: Fuc(a1-3)[Gal(b1-4)]GlcNAc(b1-2)Man
Procedure, shortened: as §1

[14] = target: Fuc(a1-3)[Gal(b1-4)]GlcNAc(b1-2)Man(a1-3)[Fuc(a1-3)[Gal(b1-4)]GlcNAc(b1-2)Man(a1-6)]Man(b1-4)GlcNAc(b1-4)GlcNAc
Procedure, shortened: as §1

[15] = target: Fuc(a1-3)[Gal(b1-4)]GlcNAc(b1-2)Man(a1-3)[Fuc(a1-3)[Gal(b1-4)]GlcNAc(b1-2)Man(a1-6)]Man(b1-4)GlcNAc(b1-4)[Fuc(a1-6)]GlcNAc
Procedure, shortened: as §1

[16] = target: Fuc(a1-3)[Gal(b1-4)]GlcNAc(b1-3)Gal(b1-3)[Fuc(a1-4)]GlcNAc
Procedure, shortened: as §1

[17] = target: Fuc(a1-3)[Gal(b1-4)]GlcNAc(b1-3)Gal(b1-4)[Fuc(a1-3)]GlcNAc
Procedure, shortened: as §1

[18] = target: Fuc(a1-3)[Gal(b1-4)]GlcNAc(b1-3)Gal(b1-4)[Fuc(a1-3)]GlcNAc(b1-3)Gal(b1-4)[Fuc(a1-3)]GlcNAc
Procedure, shortened: as §1

[19] = target: Fuc(a1-3)[Gal(b1-4)]GlcNAc(b1-3)GalNAc
Procedure, shortened: as §1

[20] = target: Fuc(a1-3)[Gal(b1-4)]GlcNAc(b1-4)Gal(b1-4)[Fuc(a1-3)]GlcNAc
Procedure, shortened: as §1

[21] = target: Fuc(a1-3)[Gal(b1-4)]GlcNAc(b1-4)Gal(b1-4)[Fuc(a1-3)]GlcNAc(b1-4)Gal(b1-4)[Fuc(a1-3)]GlcNAc
Procedure, shortened: as §1

[22] = target: Fuc(a1-3)[Gal(b1-4)]GlcNAc(b1-6)GalNAc
Procedure, shortened: as §1

[23] = target: Fuc(a1-3)[Gal(b1-4)]GlcNAc(b1-6)[Gal(b1-3)GlcNAc(b1-3)]Gal(b1-4)Glc
Procedure, shortened: as §1

[24] = target: Fuc(a1-3)[Gal(b1-4)]GlcNAc(b1-6)[Neu5Ac(a2-3)Gal(b1-3)]GalNAc
Procedure, shortened: as §1

[25] = target: Fuc(a1-3)[Gal(b1-4)]GlcNAc6S
Procedure, shortened: as §1

[26] = target: Fuc(a1-3)[Gal3S(b1-4)]Glc
Procedure, shortened: as §1

[27] = target: Fuc(a1-3)[Gal3S(b1-4)]Glc6S
Procedure, shortened: as §1

[28] = target: Fuc(a1-3)[Gal3S(b1-4)]GlcNAc
Procedure, shortened: as §1

[29] = target: Fuc(a1-3)[Gal3S(b1-4)]GlcNAc6S
Procedure, shortened: as §1

B1: Epa1-NP (Candida glabrata), Q6VBJ0 (protein)
chain: MILNPALFLNKCVCIYTTLILLLLTNGGYATSSNDISLASKDPTTFPLGCSPDITTPKKGLSMELYSYDFRKKGSYPCWDAAYLDPNYPRTGYKSHRLLAKVDGVTGNINFYYHATKGCTPQLGHLPASYNYPKPLTMTNFTMLLYGYFRPKVTGFHTFTISADDLLFVNFGAGNAFDCCRRDSSADHFGNYQAYAIWGSKTAKDELTVHLDAGVYYPIRLFYNNREYDGALSFTFKTESNENTVSDFSEYFFSLDDTEEGCPGLISYDSSCASVKTSKIIGIDYHTETPNENLVPITKTIYHLGIPCTGTTTTPLCGSGFYDPLANKCVTINTSSTSSVTKTTSHTTSKEVSFHSSISSQKTLIPKSIPSPYGPIKSQSIPTEMETSSEISSSEYAFSDVISTPSHSPYTKKHSSLNSSSYTSTVIHSLTSYSISQGIFSTSLSEQNITSKSSTDKFSTATSMSNNITQSSIIISQFSTNNENYTTTSMHTSSDKISTETLNNSISTTTSILFSNSSTILKNNTTIISSDKDTHYHPVNPTIVCSTNKTEIICASITQPSISNSNNHWSSSVLKFNSTTVRSTLPSSAGSNETSINVPFSSSTESNTSTSSTSTSNSKMVRSTLPSSAGSNETSISVPFSSSTESNTSTSSTSTSNSKMVRSTLPSSAGSNETSINVPFSSSTESNTSTSSTSTSNSKTVRSTPFSSAGIIMTSLSQRNNKSASSYASSNSKCYNTADSCRKVHSTPSYLLTSSYTSEGVDYDCSLVSTKLKINDTNCVNNKHTTKSCLKTSVTTTIPTLEIKTARKSSSNTIGLHSYPTSSPNKSISSAPIIGYISSFKTIKTASPSYQTSDLTTITTITSLNNPGSTAVENTHESNDKSRKTSSNDISSKHSVIKETKDAVESSNKSHQTNTLKCSSIIIASSSHNSYESLGGTTLTLTLSKVYSPQNNDTLPFLEISEVNPSRTVLPESSKMMQYLTSTEERNKTARNTIATNIVSISTFHFEGEGNAIRMGYTQLLLMLIGIIVMNIGT
- glycan array binding signal (z-score) [1]: -0.287
- glycan array binding signal (z-score) [2]: -0.269
- glycan array binding signal (z-score) [3]: -0.252
- glycan array binding signal (z-score) [4]: -0.292
- glycan array binding signal (z-score) [5]: -0.288
- glycan array binding signal (z-score) [6]: -0.27
- glycan array binding signal (z-score) [7]: -0.283
- glycan array binding signal (z-score) [8]: -0.016
- glycan array binding signal (z-score) [9]: -0.334
- glycan array binding signal (z-score) [10]: -0.272
- glycan array binding signal (z-score) (Fuc(a1-3)GlcNAc): -0.322
- glycan array binding signal (z-score) [11]: -0.204
- glycan array binding signal (z-score) [12]: -0.288
- glycan array binding signal (z-score) [13]: -0.287
- glycan array binding signal (z-score) [14]: -0.279
- glycan array binding signal (z-score) [15]: -0.197
- glycan array binding signal (z-score) [16]: -0.32
- glycan array binding signal (z-score) [17]: -0.282
- glycan array binding signal (z-score) [18]: -0.29
- glycan array binding signal (z-score) [19]: -0.215
- glycan array binding signal (z-score) [20]: -0.287
- glycan array binding signal (z-score) [21]: -0.324
- glycan array binding signal (z-score) [22]: 0.103
- glycan array binding signal (z-score) [23]: -0.157
- glycan array binding signal (z-score) [24]: 0.194
- glycan array binding signal (z-score) [25]: -0.093
- glycan array binding signal (z-score) [26]: -0.346
- glycan array binding signal (z-score) [27]: -0.543
- glycan array binding signal (z-score) [28]: -0.341
- glycan array binding signal (z-score) [29]: -0.218
